The supplement of paper PMC11876631
Positions count from the first letter of the chain named. Numbers in names are those of the source. ± gives the standard deviation of the averaged measurements. Laboratory Escherichia coli strains with one amino-acid change in an essential protein, pooled on minimal glucose agar with carbenicillin or gentamicin at twice the control MIC (plus kanamycin and chloramphenicol for the plasmids), 48 h. Fold change of barcode share against drug-free plates; higher = less susceptible. Active = above 20 in both replicates (the paper's putatively resistant). '<' = one read or none on drug, '>' = one read or none on a drug-free plate. Shares are relative, so most strains fall below 1 when a few take over. Listed are strains with at least 15 reads on both drug-free plates, and hits; most hits rest on fewer reference reads. Replicate rank correlation about 0.5. Edits are read from barcodes.

B1: hemA I247Q (protein)
chain: MTLLALGINHKTAPVSLRERVSFSPDKLDQALDSLLAQPMVQGGVVLSTCNRTELYLSVEEQDNLQEALIRWLCDYHNLNEEDLRKSLYWHQDNDAVSHLMRVASGLDSLVLGEPQILGQVKKAFADSQKGHMKASELERMFQKSFSVAKRVRTETDIGASAVSVAFAACTLARQIFESLSTVTVLLVGAGETIELVARHLREHKVQKMIIANRTRERAQILADEVGAEVIALSDIDERLREADIIQSSTASPLPIIGKGMVERALKSRRNQPMLLVDIAVPRDVEPEVGKLANAYLYSVDDLQSIISHNLAQRKAAAVEAETIVAQETSEFMAWLRAQSASETIREYRSQAEQVRDELTAKALAALEQGGDAQAIMQDLAWKLTNRLIHAPTKSLQQAARDGDNERLNILRDSLGLE
B2: hemA L32A (protein)
chain: B1 chain with L32A, Q247I
B3: hemA L32Q (protein)
chain: B1 chain with L32Q, Q247I
B4: hemB I309A (protein)
chain: MTDLIQRPRRLRKSPALRAMFEETTLSLNDLVLPIFVEEEIDDYKAVEAMPGVMRIPEKHLAREIERIANAGIRSVMTFGISHHTDETGSDAWREDGLVARMSRICKQTVPEMIVMSDTCFCEYTSHGHCGVLCEHGVDNDATLENLGKQAVVAAAAGADFIAPSAAMDGQVQAIRQALDAAGFKDTAIMSYSTKFASSFYGPFREAAGSALKGDRKSYQMNPMNRREAIRESLLDEAQGADCLMVKPAGAYLDIVRELRERTELPIGAYQVSGEYAMIKFAALAGAIDEEKVVLESLGSIKRAGADLAFSYFALDLAEKKILR
B5: hemB I309W (protein)
chain: B4 chain with A309W
B6: hemB I309Q (protein)
chain: B4 chain with A309Q
B7: hemB I309D (protein)
chain: B4 chain with A309D
B8: hemB F310A (protein)
chain: B4 chain with A309I, F310A
B9: hemB F310W (protein)
chain: B4 chain with A309I, F310W
B10: hemB F310Q (protein)
chain: B4 chain with A309I, F310Q
B11: hemB F310D (protein)
chain: B4 chain with A309I, F310D
B12: hemB F310P (protein)
chain: B4 chain with A309I, F310P
B13: hemB L244Q (protein)
chain: B4 chain with L244Q, A309I
B14: hemC L66A (protein)
chain: MLDNVLRIATRQSPLALWQAHYVKDKLMASHPGLVVELVPMVTRGDVILDTPLAKVGGKGLFVKEAEVALLENRADIAVHSMKDVPVEFPQGLGLVTICEREDPRDAFVSNNYDSLDALPAGSIVGTSSLRRQCQLAERRPDLIIRSLRGNVGTRLSKLDNGEYDAIILAVAGLKRLGLESRIRAALPPEISLPAVGQGAVGIECRLDDSRTRELLAALNHHETALRVTAERAMNTRLEGGCQVPIGSYAELIDGEIWLRALVGAPDGSQIIRGERRGAPQDAEQMGISLAEELLNNGAREILAEVYNGDAPA

Target: Escherichia coli (laboratory strain)
Assay: barcode share on antibiotic plates over drug-free plates; higher = less susceptible
Conditions: antibiotic: gentamicin; 2× MIC (MIC 0.45 µg/mL)
Description: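 A pool of E. coli strains, each edited to carry one amino-acid change in an essential protein, was grown for 48 h on minimal glucose agar with or without antibiotic; strain barcodes were sequenced; mean of two replicates.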

| Protein | fold change of barcode share |
| --- | --- |
| B1 | > 80.5 [active] |
| B2 | > 1260 [active] |
| B3 | 95.8 [active] |
| B4 | 0.0405 ± 0.016 |
| B5 | 0.368 ± 0.14 |
| B6 | 0.0621 ± 0.053 |
| B7 | 0.068 ± 0.073 |
| B8 | 0.0521 ± 0.072 |
| B9 | 0.0372 ± 0.019 |
| B10 | 0.00623 ± 0.0017 |
| B11 | 0.00785 ± 0.0042 |
| B12 | 0.0474 ± 0.028 |
| B13 | 0.0203 ± 0.0013 |
| B14 | > 1260 [active] |
